Results on 43 compounds are retold here after publication PMC4336329 (PLoS ONE, 2015).

Molecules are shown by their SMILES. Screen size: about 310,000 compounds; about 2,200 (0.71%) showed an effect of 50% or more. Effects have a minus sign here. The list shows a part of the results.

Chain of human ether-à-go-go-related gene (hERG) potassium channel (Q12809 whole entry, looked up): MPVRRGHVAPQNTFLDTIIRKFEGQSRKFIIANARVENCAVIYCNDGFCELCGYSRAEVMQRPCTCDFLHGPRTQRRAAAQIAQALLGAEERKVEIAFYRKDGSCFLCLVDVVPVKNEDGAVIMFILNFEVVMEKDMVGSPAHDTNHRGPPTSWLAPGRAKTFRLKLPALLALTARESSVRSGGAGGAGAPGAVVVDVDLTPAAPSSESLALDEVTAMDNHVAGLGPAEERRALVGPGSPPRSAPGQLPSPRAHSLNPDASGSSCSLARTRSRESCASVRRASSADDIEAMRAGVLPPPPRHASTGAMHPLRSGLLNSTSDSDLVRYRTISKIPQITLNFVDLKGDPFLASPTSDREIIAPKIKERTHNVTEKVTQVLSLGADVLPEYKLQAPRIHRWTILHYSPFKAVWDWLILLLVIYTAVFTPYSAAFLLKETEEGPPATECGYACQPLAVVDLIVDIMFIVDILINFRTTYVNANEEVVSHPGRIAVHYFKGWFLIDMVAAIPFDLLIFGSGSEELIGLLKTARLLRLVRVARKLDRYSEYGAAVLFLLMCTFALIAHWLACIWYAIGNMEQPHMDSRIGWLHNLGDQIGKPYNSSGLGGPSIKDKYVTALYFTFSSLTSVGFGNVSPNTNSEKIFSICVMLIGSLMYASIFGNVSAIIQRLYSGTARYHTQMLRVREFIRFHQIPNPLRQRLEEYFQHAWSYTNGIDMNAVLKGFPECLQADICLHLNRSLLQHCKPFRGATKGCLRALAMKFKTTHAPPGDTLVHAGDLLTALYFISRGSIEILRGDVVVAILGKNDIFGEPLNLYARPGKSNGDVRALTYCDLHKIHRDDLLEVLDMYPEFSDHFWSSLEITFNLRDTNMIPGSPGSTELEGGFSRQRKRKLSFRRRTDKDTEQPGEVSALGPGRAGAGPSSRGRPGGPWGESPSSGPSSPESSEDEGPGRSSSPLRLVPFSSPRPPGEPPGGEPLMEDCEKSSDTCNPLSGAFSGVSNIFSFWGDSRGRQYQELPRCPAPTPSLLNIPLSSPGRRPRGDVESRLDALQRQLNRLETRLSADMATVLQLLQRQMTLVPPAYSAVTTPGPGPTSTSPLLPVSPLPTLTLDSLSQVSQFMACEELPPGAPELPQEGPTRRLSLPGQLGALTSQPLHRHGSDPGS

The experiment addresses human ether-à-go-go-related gene (hERG) potassium channel (human, UniProt Q12809). The experiment in a line: primary screen, population patch clamp on CHO cells stably expressing hERG.
As to `O=C(c1ccccc1)N1CCN(C(=O)c2ccncc2)CC1`, the “hERG current change (%, negative = inhibition) at 1uM” value was 16.4%.

Take `CCC(C)(C)NC(=O)CCCSc1nc2ccccc2s1`: the “hERG current change (%, negative = inhibition) at 1uM” value is 16.9%.

For the compound `COc1ccc(-c2cc(C(F)(F)F)nc(SCC(=O)Nc3ccc4c(c3)OCO4)n2)cc1`, the “hERG current change (%, negative = inhibition) at 1uM” value worked out at 5.95%.

For the compound `Cc1cc(C)c(C(=O)NNC(=O)c2cccnc2)c(C)c1`, the “hERG current change (%, negative = inhibition) at 1uM” value stood at 9.82%.

With `Cc1cccc(NS(=O)(=O)c2cccc(C(=O)NCC(c3ccco3)N(C)C)c2)c1` (stereo not shown), the “hERG current change (%, negative = inhibition) at 1uM” value came to 11.7%.

In the case of `COc1ccc(CN2CCN(CC=C(C)C)C(CCO)C2)cc1Cn1cccn1` (stereo not shown), the “hERG current change (%, negative = inhibition) at 1uM” value is given as 7.96%.

On to `COc1ccc2c(c1)[C@]13CCCCC1C(C2)N(C)CC3` (stereo partly shown), for which the “hERG current change (%, negative = inhibition) at 1uM” value stood at 7.88%.

For the compound `CC1=NN(C(N)=S)C(C)(C)C1`, the “hERG current change (%, negative = inhibition) at 1uM” value came to 12.6%.

On to `I.c1ccc2c(c1)nc(N1CCCCCC1)c1ccccc12`, for which the “hERG current change (%, negative = inhibition) at 1uM” value is listed as 11.1%.

Consider `CCN(CC)S(=O)(=O)c1ccc(-c2csc(C)n2)cc1`, for which the “hERG current change (%, negative = inhibition) at 1uM” value was found to be 10.9%.

Consider `Cn1c(CNC(=O)c2ccc(Cl)cc2)nnc1SCC(=O)Nc1sc2c(c1C#N)CCCC2`, for which the “hERG current change (%, negative = inhibition) at 1uM” value worked out at 0.949%.

Turning to `CCN(CC(=O)NC1CCS(=O)(=O)C1)c1nc(-c2cccnc2)nc2ccccc12` (stereo not shown), the “hERG current change (%, negative = inhibition) at 1uM” value is reported as 6.68%.

Turning to `COc1ccc(-c2nnc3n2-c2ccccc2SC3)cc1OC.Cl`, the “hERG current change (%, negative = inhibition) at 1uM” value is listed as 13%.

Take `COC(=O)[C@@H]1[C@H](CCc2ccccc2)NC(=O)N(Cc2ccccc2)[C@@H]1C`: the “hERG current change (%, negative = inhibition) at 1uM” value is recorded as 14.4%.

With `Cl.O=C(CN1CCN(CCO)CC1)Nc1ccccc1`, the “hERG current change (%, negative = inhibition) at 1uM” value was 4.35%.

With `O=C1CC(N(Cc2cccs2)C(=O)Nc2ccccc2)C(=O)N1c1ccc(Cl)cc1` (stereo not shown), the “hERG current change (%, negative = inhibition) at 1uM” value is listed as 9.02%.

For the compound `O=C(/C=C/c1ccc(Br)cc1)NC(=S)Nc1ccc(S(=O)(=O)Nc2nccs2)cc1`, the “hERG current change (%, negative = inhibition) at 1uM” value was found to be 16.2%.

In the case of `CN(C)S(=O)(=O)N1CCC(Oc2ccc(C(=O)N3C[C@H]4CC[C@H]3C4)cc2)CC1`, the “hERG current change (%, negative = inhibition) at 1uM” value was 2.43%.

Consider `CC1CN(C(=O)CCC(=O)NCCCN2CCN(Cc3ccccc3)CC2)c2cc(Cl)ccc2O1` (stereo not shown), for which the “hERG current change (%, negative = inhibition) at 1uM” value is on record as -68.1%.

Consider `Cl.O=C(CN1CCCCC1)Nc1cccc([N+](=O)[O-])c1`, for which the “hERG current change (%, negative = inhibition) at 1uM” value is recorded as 1.66%.

Take `Cc1c(C)c2c(OCC(=O)NCC(C)C)cc3c(c2oc1=O)CCC(C)(C)O3`: the “hERG current change (%, negative = inhibition) at 1uM” value worked out at 11.8%.

Regarding `O=C(NCCc1cccc(F)c1)C1CCN(S(=O)(=O)c2ccccc2)CC1`, the “hERG current change (%, negative = inhibition) at 1uM” value is recorded as 3.36%.

Regarding `CCc1ccc(Nc2nc3ccccc3c(=O)s2)cc1`, the “hERG current change (%, negative = inhibition) at 1uM” value worked out at 4.77%.

As for `CC(C)(C)OC(=O)CNC(=O)c1nc[nH]c1C(=O)N1CC[NH2+]CC1.[Cl-]`, the “hERG current change (%, negative = inhibition) at 1uM” value came to 10.9%.

Take `COc1ccc(C(C[N+](=O)[O-])c2c(C)cc3ccccn23)cc1` (stereo not shown): the “hERG current change (%, negative = inhibition) at 1uM” value amounted to 11.5%.

Regarding `C=C1CCN([C@H](C(=O)OCc2cccc(C)c2)C(C)C)S(=O)(=O)c2ccccc21`, the “hERG current change (%, negative = inhibition) at 1uM” value was found to be 6.92%.

On to `CCOc1ccc2oc(C(=O)N3CCN(c4ccccc4OCC)CC3)c(C)c2c1`, for which the “hERG current change (%, negative = inhibition) at 1uM” value is -19.7%.

As to `O=C1C2C3C=CC(C3=C3CCCCC3)C2C(=O)N1c1ccccc1` (stereo not shown), the “hERG current change (%, negative = inhibition) at 1uM” value amounted to 15.2%.

As to `COc1ccc(/C(C)=N/Nc2nncc3ccccc23)cc1`, the “hERG current change (%, negative = inhibition) at 1uM” value came to 13.5%.

Turning to `COc1ccc(C(=O)OCC(=O)NCC2CCCO2)cc1S(=O)(=O)N1CCCc2ccccc21` (stereo not shown), the “hERG current change (%, negative = inhibition) at 1uM” value was determined as 5.82%.

Consider `CC1(C)Cc2c(sc(NC(=O)C(=O)NCC3CCCO3)c2C(=O)O)CO1` (stereo not shown), for which the “hERG current change (%, negative = inhibition) at 1uM” value stood at 4.66%.

With `CCn1cc(C(=O)N2CC(C)CC(C)C2)c(=O)c2cc(S(=O)(=O)N3CCOCC3)ccc21` (stereo not shown), the “hERG current change (%, negative = inhibition) at 1uM” value is -11.6%.

As to `COc1ccc(-c2cnc3n2CCCCC3)cc1`, the “hERG current change (%, negative = inhibition) at 1uM” value is 2.81%.

Regarding `COc1ccc2c(c1)OC(c1ccccc1)(C(F)(F)F)NC2=O` (stereo not shown), the “hERG current change (%, negative = inhibition) at 1uM” value worked out at 4.44%.

`CCc1cccc(C)c1NC(=O)CSc1nc2ccncc2[nH]1`: the “hERG current change (%, negative = inhibition) at 1uM” value is on record as 3.35%.

Take `O=C(CN(Cc1ccccc1)C(=O)CNS(=O)(=O)c1ccc(Cl)cc1)NCC1CCCO1` (stereo not shown): the “hERG current change (%, negative = inhibition) at 1uM” value came to 9.81%.

As for `O=C(C1CCCO1)N1CCN(C(=S)Nc2cccc(F)c2)CC1` (stereo not shown), the “hERG current change (%, negative = inhibition) at 1uM” value amounted to 16.3%.

For the compound `COc1cc2c(cc1OC)C(=O)N1[C@H]3c4ccccc4OC[C@@H]3[C@H](c3ccccc3)[C@]1(C)C(=O)N2`, the “hERG current change (%, negative = inhibition) at 1uM” value was 10.6%.

Take `COCCNC(=O)CN1C(=O)NC2(CCCc3ccccc32)C1=O` (stereo not shown): the “hERG current change (%, negative = inhibition) at 1uM” value worked out at 7.39%.

For the compound `Cc1nc2ccccc2nc1N1CCOCC1`, the “hERG current change (%, negative = inhibition) at 1uM” value is reported as 5.1%.

For the compound `COc1cccc2c1C(=O)CC2NC(=O)C(F)(F)F` (stereo not shown), the “hERG current change (%, negative = inhibition) at 1uM” value came out at 2.93%.

Regarding `COc1cc(C(c2sc3nc(C)nn3c2O)N2CCC3(CC2)OCCO3)cc(OC)c1OC` (stereo not shown), the “hERG current change (%, negative = inhibition) at 1uM” value amounted to 36%.

`CCNc1nc(C23CC4CC(CC(C4)C2)C3)cs1.Cl`: the “hERG current change (%, negative = inhibition) at 1uM” value was found to be 10.1%.
